Assay results taken from PubChem BioAssay AID504333 (National Center for Advancing Translational Sciences (NCATS), 2011).
About 16,000 (4.4%) of roughly 360,000 compounds were called active. The inconclusive results got no clear call from the source; some entries with a clear call stand among them for comparison. Calls follow the shape of the dose curve; as a rule, active = well fitted inhibition curve with a large enough effect; inconclusive = small, poorly fitted or top-dose-only effect; inactive = no such curve, though single readings can be large or run the other way. A potency beside an inconclusive call is a rough fit, not a confirmed value.

Target: Bromodomain adjacent to zinc finger domain protein 2B (Homo sapiens) (UniProt Q9UIF8)
Test: qHTS Assay for Inhibitors of BAZ2B; also: nearly all actives have a fitted effect of over 60% in size
Settings: AlphaScreen BAZ2B-H3K14Ac peptide displacement; activity change, negative = inhibition: at 114 µM (top of the series)
In short: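 BAZ2B 50 nM plus b-H3(5-23)K14Ac 50 nM, PBS pH 7.4/0.01% Tween-20, 30 min RT; compound added (max 110 uM), 30 min RT; streptavidin donor/Ni-chelate acceptor beads 10 ug/mL final, 20 min dark; AlphaScreen read.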
% is scaled to controls: 0 for no effect and ±100 for the full control effect; potency is read from the fitted curve at half-maximal effect; tags tell the direction and shape of the fitted curve.

Sequence of UniProt Q9UIF8 (Q9UIF8 whole entry, looked up, the tested form may be a part): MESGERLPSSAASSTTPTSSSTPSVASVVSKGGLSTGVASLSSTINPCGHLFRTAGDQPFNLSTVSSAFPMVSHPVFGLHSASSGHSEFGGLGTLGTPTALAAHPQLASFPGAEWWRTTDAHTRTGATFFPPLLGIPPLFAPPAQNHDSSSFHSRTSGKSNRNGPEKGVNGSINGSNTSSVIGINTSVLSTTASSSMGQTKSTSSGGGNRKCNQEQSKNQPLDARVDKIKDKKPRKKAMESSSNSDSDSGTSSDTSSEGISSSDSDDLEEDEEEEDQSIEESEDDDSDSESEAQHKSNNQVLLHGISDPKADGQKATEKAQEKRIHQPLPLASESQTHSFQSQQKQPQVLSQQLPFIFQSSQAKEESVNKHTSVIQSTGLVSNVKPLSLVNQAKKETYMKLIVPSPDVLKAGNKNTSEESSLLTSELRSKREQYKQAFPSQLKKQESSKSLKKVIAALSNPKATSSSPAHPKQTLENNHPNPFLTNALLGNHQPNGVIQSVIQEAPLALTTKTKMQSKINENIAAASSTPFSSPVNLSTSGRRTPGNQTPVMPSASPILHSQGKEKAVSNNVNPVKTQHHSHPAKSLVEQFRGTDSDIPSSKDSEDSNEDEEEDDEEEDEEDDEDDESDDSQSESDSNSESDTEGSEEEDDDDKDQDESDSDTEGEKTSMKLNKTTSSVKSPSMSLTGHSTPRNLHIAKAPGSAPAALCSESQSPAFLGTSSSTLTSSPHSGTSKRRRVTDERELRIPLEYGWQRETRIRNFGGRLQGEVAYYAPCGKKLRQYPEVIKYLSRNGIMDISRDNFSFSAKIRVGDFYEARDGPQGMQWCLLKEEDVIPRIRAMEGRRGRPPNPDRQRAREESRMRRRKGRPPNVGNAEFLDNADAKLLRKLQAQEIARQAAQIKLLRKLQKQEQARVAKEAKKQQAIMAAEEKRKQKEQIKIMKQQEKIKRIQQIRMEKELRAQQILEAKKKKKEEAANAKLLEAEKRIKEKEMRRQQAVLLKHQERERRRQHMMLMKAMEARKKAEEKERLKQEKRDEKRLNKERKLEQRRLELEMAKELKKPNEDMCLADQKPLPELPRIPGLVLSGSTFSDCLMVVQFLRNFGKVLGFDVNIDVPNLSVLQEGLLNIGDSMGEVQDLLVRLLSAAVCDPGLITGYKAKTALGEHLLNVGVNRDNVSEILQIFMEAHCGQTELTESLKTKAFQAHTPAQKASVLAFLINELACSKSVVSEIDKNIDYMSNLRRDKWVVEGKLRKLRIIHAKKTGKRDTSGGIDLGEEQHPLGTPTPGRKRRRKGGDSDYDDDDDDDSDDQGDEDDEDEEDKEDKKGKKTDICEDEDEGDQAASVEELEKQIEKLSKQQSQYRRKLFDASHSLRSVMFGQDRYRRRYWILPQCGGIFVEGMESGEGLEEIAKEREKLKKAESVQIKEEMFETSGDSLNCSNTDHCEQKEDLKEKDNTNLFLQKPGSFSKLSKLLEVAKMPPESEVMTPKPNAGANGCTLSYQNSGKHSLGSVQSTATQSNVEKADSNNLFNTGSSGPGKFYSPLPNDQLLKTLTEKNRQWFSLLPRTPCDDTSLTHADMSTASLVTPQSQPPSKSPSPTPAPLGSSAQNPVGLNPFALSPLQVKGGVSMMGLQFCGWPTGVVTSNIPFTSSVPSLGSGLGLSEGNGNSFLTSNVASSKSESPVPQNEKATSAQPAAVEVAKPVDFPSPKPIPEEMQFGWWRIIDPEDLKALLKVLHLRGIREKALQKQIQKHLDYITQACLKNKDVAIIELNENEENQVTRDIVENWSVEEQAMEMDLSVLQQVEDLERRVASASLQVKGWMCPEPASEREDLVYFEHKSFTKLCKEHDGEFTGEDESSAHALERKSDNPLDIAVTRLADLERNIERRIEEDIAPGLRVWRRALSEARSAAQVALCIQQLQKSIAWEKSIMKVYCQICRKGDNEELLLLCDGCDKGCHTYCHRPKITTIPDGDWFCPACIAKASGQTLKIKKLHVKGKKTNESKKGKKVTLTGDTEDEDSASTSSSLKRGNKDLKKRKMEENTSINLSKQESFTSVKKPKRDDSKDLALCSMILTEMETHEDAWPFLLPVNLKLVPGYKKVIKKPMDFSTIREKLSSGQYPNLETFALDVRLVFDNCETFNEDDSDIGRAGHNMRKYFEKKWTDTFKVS

Row | SMILES | Potency | activity change, negative = inhibition
1 | Cc1nnc(-c2ccc(Oc3ccc(Cl)cc3)c([N+](=O)[O-])c2)o1 | inconclusive: 89.1 µM [inhibitor, single point] | –
2 | Cc1cc(C(=O)CSc2n[nH]c(N)n2)c(C)n1-c1ccccc1 | inconclusive: 89.1 µM [inhibitor, single point] | –
3 | CCN(CC)C(=O)Oc1ccc2c(c1)O/C(=C\c1ccco1)C2=O | active: 39.8 µM | –
4 | Clc1cccc(OCCN2CCNCC2)c1 | – | inactive: -33.3%
5 | O=C(NC(=S)NCc1ccco1)c1cccc(Cl)c1 | inconclusive: 70.8 µM [inhibitor, single point] | –
6 | O=c1c(-c2nnc(SCc3ccc(Cl)c(Cl)c3)o2)cccn1Cc1ccccc1 | – | inactive: 6.4%
7 | O=c1cc(-c2ccccc2)nc(N2CCN(Cc3ccc4c(c3)OCO4)CC2)[nH]1 | inconclusive: 79.4 µM [inhibitor, single point] | –
8 | O=c1c(C/C=C/c2ccccc2)c(O)ccn1Cc1ccc(Cl)cc1Cl | inconclusive: 79.4 µM [inhibitor, single point] | –
9 | Cc1ccc(C)c(NC(=O)c2ccc[n+](Cc3ccc([N+](=O)[O-])cc3)c2)c1 | inconclusive: 89.1 µM [inhibitor, single point] | –
10 | C=CCN(N=Nc1cccc([N+](=O)[O-])c1)c1cccc([N+](=O)[O-])c1 | inconclusive: 22.4 µM [inhibitor, full curve] | –
11 | O=C(Nc1ccccc1)c1cccc(N2C(=O)CCC2=O)c1 | – | inactive: 10.2%
12 | Cc1ccc(CN2C(=O)CC(Nc3ccc(N4CCOCC4)cc3)C2=O)cc1 (configuration not stated) | inconclusive: 39.8 µM [inhibitor, partial curve] | –
13 | O=C(CCn1c(=O)c2cccn2c2cccnc21)NCc1ccccc1F | – | inactive: -19.5%
14 | COc1ccc(CCNC(=O)C2CC(c3cc(C(F)(F)F)cc(C(F)(F)F)c3)=NO2)cc1 (configuration not stated) | inconclusive: 89.1 µM [inhibitor, single point] | –
15 | O=C(O)c1cc2ccccc2cc1Nc1ccccc1 | inconclusive: 39.8 µM [inhibitor, partial curve] | –
16 | O=C(COc1ccc(F)cc1)Nc1ccccc1OCc1cc(=O)n2ccccc2n1 | – | inactive: 8.99%
17 | O=C(c1ccco1)N1CCN(CC(O)COc2ccc3oc4ccccc4c3c2)CC1 (configuration not stated) | inconclusive: 44.7 µM [inhibitor, partial curve] | –
18 | CCOC(=O)C1CCCN(C/C=C/c2ccccc2)C1 (configuration not stated) | inconclusive: 89.1 µM [inhibitor, single point] | –
19 | O=C(N/N=C/C=C/c1ccccc1)c1cc2c(ccc3ccccc32)o1 | inconclusive: 89.1 µM [inhibitor, single point] | –
20 | COc1ccc(S(=O)(=O)N2CCOCC2)cc1N=Nc1sc(N)nc1-c1ccccc1 | inconclusive: 7.94 µM [inhibitor, full curve] | –
21 | COc1cc(NC(=O)c2cc([N+](=O)[O-])ccc2NC(=O)CNCc2ccccn2)cc(OC)c1 | inconclusive: 50.1 µM [inhibitor, partial curve] | –
22 | CCCN(C(=O)COc1cc(=O)n(CC)c2ccccc12)c1ccc(C(C)C)cc1 | inconclusive: 20 µM [inhibitor, full curve] | –
23 | CCCn1c(CCc2ccccc2)nnc1SCC(=O)N1CCCC1 | – | inactive: -10.3%
24 | CCOC(=O)N1CCN(C(=O)c2ccc3oc(CCCc4ccccc4)nc3c2)CC1 | – | inactive: -7.52%

Row | SMILES | Potency | activity change, negative = inhibition
25 | CCOc1ccc(-c2nn[nH]n2)cc1 | inconclusive: 100 µM [inhibitor, single point] | –
26 | Cc1ccc(NCc2ccccc2O)c(C)c1 | active: 31.6 µM | –
27 | O=C(C1=C[C@@H](c2ccc(Br)cc2)C[C@@H](OCCCCO)O1)N1CCN(Cc2ccc3c(c2)OCO3)CC1 | inconclusive: 44.7 µM [inhibitor, partial curve] | –
28 | CCOc1ccc(/C=C2\SC(=S)N(NS(=O)(=O)c3ccc(C)cc3)C2=O)cc1OC | inconclusive: 25.1 µM [inhibitor, partial curve] | –
29 | CCc1ccc(-n2c(SCc3ccccc3C)nc3[nH]ncc3c2=O)cc1 | inconclusive: 79.4 µM [inhibitor, partial curve] | –
30 | COc1ccc(OC)c(-c2csc(NC(=O)CN3C(=O)C4CCCCC4C3=O)n2)c1 (configuration not stated) | inconclusive: 79.4 µM [inhibitor, single point] | –
31 | Cc1cc(NC(=O)CSc2nccn2-c2ccc(F)cc2)no1 | inconclusive: 100 µM [inhibitor, single point] | –
32 | COc1ccc(CN(C)S(=O)(=O)c2c(C)noc2C)cc1OC | – | inactive: 5.94%
33 | COc1cccc(CNc2ccc(S(=O)(=O)Nc3nccs3)cc2)c1O | – | inactive: 62.8%
34 | O=C(CSc1nc2cccnc2n1Cc1ccccc1)NCc1ccco1 | inconclusive: 89.1 µM [inhibitor, single point] | –
35 | COc1ccccc1N1CCN(CCc2n[nH]c(=S)n2-c2ccccc2)CC1 | active: 50.1 µM | –
36 | Cc1ccc(N/C(N)=N/c2nc(C)cc(N3CCCCC3)n2)c(C)c1 | inconclusive: 70.8 µM [inhibitor, single point] | –
37 | COc1cccc2cc(-c3csc(-c4ccc(Cl)cc4)n3)c(=O)oc12 | – | inactive: 1.19%
38 | CCC1(C)Cc2sc3c(=O)[nH]c(=S)[nH]c3c2CO1 (configuration not stated) | inconclusive: 89.1 µM [inhibitor, single point] | –
39 | O=C(NCC1CC1)c1ccc2c(c1)S(=O)(=O)c1cc(Cl)ccc1C2=O | inconclusive: 89.1 µM [inhibitor, single point] | –
40 | CCN(CC1COc2ccccc2O1)C(=S)NC1CC2CCC1C2 (configuration not stated) | – | inactive: -1.76%
41 | CCOC(=O)N1CCC(=C2c3ccc(Cl)cc3CCc3cccnc32)CC1 | inconclusive: 79.4 µM [inhibitor, partial curve] | –
42 | C=CCOC(=O)C(C#N)c1nc2ccccc2nc1N1CCCC1 (configuration not stated) | inconclusive: 70.8 µM [inhibitor, single point] | –
43 | CCS(=O)(=O)N1CCN(Cc2c[nH]c3ccccc23)CC1 | active: 56.2 µM | –
44 | CCc1ccc(-c2cn3c(n2)SCC3)cc1 | inconclusive: 25.1 µM [inhibitor, partial curve] | –
45 | Cc1cc(O)c(-c2cc(C(=O)Nc3ccc(S(=O)(=O)N4CCOCC4)cc3)[nH]n2)cc1C | – | inactive: -2.95%
46 | Cc1ccc(NS(=O)(=O)c2cc(C(=O)N3CCN(CCO)CC3)ccc2C)cc1 | active: 50.1 µM | –
47 | Cc1cc2cc(CCNC(=O)c3ccc(S(=O)(=O)N4CCOCC4)cc3)c(=O)[nH]c2cc1C | – | inactive: -2.87%
48 | CCCCSc1nc(SCC(=O)NCc2ccco2)c2c3c(sc2n1)COC(C)(CC)C3 (configuration not stated) | inconclusive: 89.1 µM [inhibitor, single point] | –

Row | SMILES | Potency | activity change, negative = inhibition
49 | Cn1c(-[n+]2c(-c3ccccc3)cc(-c3ccccc3)cc2-c2ccccc2)nc2c([N+](=O)[O-])cccc21 | – | inactive: -29.4%
50 | O[C@@H]1COC(Nc2ccc(N=Nc3ccccc3)cc2)C[C@@H]1O (some centres not stated) | inconclusive: 50.1 µM [inhibitor, partial curve] | –
51 | COc1cc(C(=S)N2CCN(c3cccc(Cl)c3)CC2)ccc1O | active: 44.7 µM | –
52 | COc1ccccc1OCCCCn1c(-c2ccc(Cl)cc2)nc2ccccc2c1=O | – | inactive: 6.01%
53 | Clc1ccc(OCc2nnc3n2CCCCC3)c(Cl)c1 | inconclusive: 89.1 µM [inhibitor, single point] | –
54 | Cc1cc(C(=O)Nc2cccc(F)c2)c2c(C)nn(-c3cccc(Cl)c3C)c2n1 | – | inactive: -6.92% [at 57.1 µM]
55 | Cc1cc(C(=O)COC(=O)C2CCN(C(=O)c3ccc(Cl)cc3)CC2)c(C)n1CC1CCCO1 (configuration not stated) | inconclusive: 44.7 µM [inhibitor, partial curve] | –
56 | C=CCN=c1scc(-c2ccccc2)n1/N=C/c1ccccn1 | active: 28.2 µM | –
57 | O=C(CN(c1cccc([N+](=O)[O-])c1)S(=O)(=O)c1ccccc1)N1CCCCC1 | – | inactive: -0.92%
58 | Cc1ccc(OCC(=O)N/N=C\c2ccc(-c3cccc(C(=O)O)c3)o2)c(C)c1 | inconclusive: 89.1 µM [inhibitor, single point] | –
59 | O=C1CN(c2ccccc2F)C(=O)CN1c1ccccc1F | – | inactive: -3%
60 | Cc1ccccc1C(=O)OCc1cc(=O)n2c(C)csc2n1 | – | inactive: 0.735%
61 | CCCN1C(=O)/C(=C/c2ccc(C)o2)SC1=Nc1ccc(OCC)cc1 | inconclusive: 3.16 µM [inhibitor, full curve] | –
62 | CCOc1cc(S(=O)(=O)N2CCN(C(=O)c3ccco3)CC2)ccc1F | inconclusive: 79.4 µM [inhibitor, single point] | –
63 | CSc1nc(C)c(C(=O)C[n+]2ccccc2)cc1C#N | active: 0.794 µM | –
64 | CCOC(=O)CSc1nnc(-c2ccc3ncccc3c2)n1C | – | inactive: -37.8%
65 | CC(=O)NC12CC3CC(C1)CC(C(=O)OCC(=O)Nc1ncc(Cl)c(C)c1Cl)(C3)C2 | inconclusive: 89.1 µM [inhibitor, single point] | –
66 | CN(C)S(=O)(=O)c1cccc(N=C2NN=C(c3ccccc3)CS2)c1 | – | inactive: -5.4%
67 | CN1CCN(/N=C/c2nc(-c3cccc([N+](=O)[O-])c3)n3ccccc23)CC1 | inconclusive: 89.1 µM [inhibitor, single point] | –
68 | O=C(CN1CCN(c2ccc(F)cc2)CC1)Nc1cccc(C(F)(F)F)c1 | inconclusive: 56.2 µM [inhibitor, partial curve] | –
69 | Cc1ccc2[nH]c(=O)c(Cc3ccccc3)c(O)c2c1 | inconclusive: 89.1 µM [inhibitor, single point] | –
70 | CC(C)OCCCNC(=O)C(NS(=O)(=O)c1ccc2c(c1)c(=O)n(C)c(=O)n2C)c1ccccc1 (configuration not stated) | – | inactive: -4.08%
71 | O=C1Nc2ccccc2Nc2ccccc21 | inconclusive: 56.2 µM [inhibitor, partial curve, poor fit] | –
72 | Cc1cc(/C=C2/NC(=S)NC2=O)c(C)n1-c1cccnc1 | inconclusive: 44.7 µM [inhibitor, partial curve] | –
